# Experimental data as given in article PMC4336329 (PLoS ONE, 2015).
# The campaign covered roughly 310,000 compounds. About 14,000 (4.5%) showed an effect of 50% or more. The effect is printed as a negative number. This is one part of the list.
# Molecular target: human ether-à-go-go-related gene (hERG) potassium channel (human, UniProt Q12809)
# Assay: primary screen, population patch clamp on CHO cells stably expressing hERG
# 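Also: peak tail current of the secondary pulse compared with the same well before compound.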
# Sequence of human ether-à-go-go-related gene (hERG) potassium channel (Q12809 whole entry, looked up): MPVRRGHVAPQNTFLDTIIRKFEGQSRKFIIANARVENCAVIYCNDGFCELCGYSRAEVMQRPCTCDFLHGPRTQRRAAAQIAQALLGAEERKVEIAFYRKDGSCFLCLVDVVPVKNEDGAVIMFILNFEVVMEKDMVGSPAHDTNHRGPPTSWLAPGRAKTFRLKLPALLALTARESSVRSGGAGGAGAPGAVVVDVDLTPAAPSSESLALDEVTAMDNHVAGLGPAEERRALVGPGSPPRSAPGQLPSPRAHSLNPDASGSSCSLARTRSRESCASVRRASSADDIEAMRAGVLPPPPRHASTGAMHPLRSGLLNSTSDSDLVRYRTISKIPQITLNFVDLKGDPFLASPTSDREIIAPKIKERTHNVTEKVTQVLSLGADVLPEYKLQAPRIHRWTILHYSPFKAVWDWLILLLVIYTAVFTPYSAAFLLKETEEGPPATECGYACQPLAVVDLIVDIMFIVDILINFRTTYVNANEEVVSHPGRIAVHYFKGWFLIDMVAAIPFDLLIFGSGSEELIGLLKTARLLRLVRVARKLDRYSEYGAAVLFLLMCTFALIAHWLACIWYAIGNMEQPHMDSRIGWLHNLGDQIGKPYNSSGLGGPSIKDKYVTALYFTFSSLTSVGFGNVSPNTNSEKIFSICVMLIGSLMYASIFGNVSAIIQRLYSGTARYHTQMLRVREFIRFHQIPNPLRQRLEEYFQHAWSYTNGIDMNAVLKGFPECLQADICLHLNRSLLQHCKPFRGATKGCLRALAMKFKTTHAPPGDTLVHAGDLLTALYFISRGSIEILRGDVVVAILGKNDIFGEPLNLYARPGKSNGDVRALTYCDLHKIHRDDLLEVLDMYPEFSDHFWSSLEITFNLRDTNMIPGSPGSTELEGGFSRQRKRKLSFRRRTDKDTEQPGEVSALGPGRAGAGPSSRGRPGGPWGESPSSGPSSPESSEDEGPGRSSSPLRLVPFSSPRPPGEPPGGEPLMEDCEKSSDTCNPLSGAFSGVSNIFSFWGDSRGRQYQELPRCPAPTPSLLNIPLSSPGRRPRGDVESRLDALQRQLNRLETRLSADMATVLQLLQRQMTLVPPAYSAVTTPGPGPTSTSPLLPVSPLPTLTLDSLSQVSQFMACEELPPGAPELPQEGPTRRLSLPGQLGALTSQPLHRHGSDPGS
row,Compound,"hERG current change (%, negative = inhibition) at 10uM [%]"
1,COC(=O)C1=C(Nc2ccc(C)cc2)C=C(C)C(C(=O)OC)C1c1cccc(OC)c1 (centres unmarked),-1.3
2,COc1cccc(Nc2nnc(Cc3cccnc3)c3ccccc23)c1,-75.8
3,CCOC(=O)N1CCN(CC(O)COc2ccccc2C(C)C)CC1.Cl (centres unmarked),-8.87
4,Cn1nc(C(C)(C)C)cc1C(=O)NNC(=O)c1cccc(Cl)c1,12.8
5,C[C@H]1CCC[C@@]2(O[C@@H](CCO)C[C@H](O)[C@H]2O)O1,16
6,COc1ccc(CC(=O)NCCc2ccc(S(N)(=O)=O)cc2)cc1,16.5
7,COC(=O)c1cccc(N(CC(=O)NC2CCCC2)C(=O)CNC(=O)c2cccs2)c1,-1.26
8,c1ccc(OCc2nc3c4c(ncn3n2)-c2ccccc2CC42CCCC2)cc1,0.954
9,CN(CC(=O)N1CCN(c2ccccn2)CC1)S(=O)(=O)c1ccccc1,-12.8
10,CC(OC(=O)C1CCC(=O)N1)C(=O)Nc1cc(Cl)cc(Cl)c1 (centres unmarked),2.72
11,COCCCNCCOc1ccc(C(C)(C)c2ccccc2)cc1.O=C(O)C(=O)O,-54.5
12,COc1ccccc1CCNC(=O)c1cnccn1,-3.36
13,O=C(CSc1cccc[n+]1[O-])c1ccc(Cl)s1,10.8
14,O=C(NCc1ccc2[nH]c3c(c2c1)CCCC3)N1CCOCC1,1.35
15,CC(NC(=O)Cn1nc(C(F)(F)F)c2c1CCC2)c1ccccc1 (centres unmarked),-5.6
16,COC(=O)C1=C(C)Nc2nnnn2C1c1ccco1 (centres unmarked),-7.62
17,O=C(CC1(O)C(=O)Nc2ccccc21)c1ccccc1O (centres unmarked),7.03
18,Cc1cccc2cc(CN(C(=O)c3cccc([N+](=O)[O-])c3)C(C)C)c(=O)[nH]c12,5.02
19,CC(=O)N1CCN(c2ccc(S(=O)(=O)N3CCCCC3)cn2)CC1,-29.7
20,COc1cc(/C=C/CN2CCN(CCC(C)C)C(CCO)C2)ccc1O (centres unmarked),23
21,O=C(COc1ccccc1)Nc1ncn[nH]1,-8.43
22,O=C(O)c1ccc(COc2ccc(CO)cc2Cl)cc1,-1.15
23,COc1ccc(Cl)cc1NC(=O)C(C)N1CCN(c2ccccn2)CC1 (centres unmarked),-18.3

row,Compound,"hERG current change (%, negative = inhibition) at 10uM [%]"
1,NC1=NC[C@H](c2ccccc2)N1CCc1cc(C(F)(F)F)cc(C(F)(F)F)c1,-14.4
2,CCCSC1=C(C#N)C(c2ccc(OC)cc2)C2=C(CC(C)(C)CC2=O)N1 (centres unmarked),0.681
3,COc1ccccc1C(=O)NNC(=O)c1cccc(Br)c1,6.42
4,Cc1ccc(CN2C(=O)[C@H]3Cc4c([nH]c5ccccc45)C(C)(C)N3C2=O)cc1,15.7
5,CCOC(=O)/C(C#N)=C/c1c[nH]c2ccccc12,-0.909
6,O=C(CCc1ccccn1)NC1CCCc2c1cnn2-c1ccc(F)cc1F (centres unmarked),3.18
7,NC(=O)c1coc(-c2ccccc2)n1,12.9
8,CCN1CCOC(CC(=O)Nc2cccc([N+](=O)[O-])c2)C1=O (centres unmarked),-1.35
9,CCC(C(=O)OCC(=O)Nc1cc(Cl)cc(Cl)c1)c1ccccc1 (centres unmarked),29.9
10,COc1ccc(NC(=O)CSc2cc(C(=O)c3nccn3C)c3ccccc3n2)cc1,-10.7
11,O=C1CC[C@H](O)CCN1[C@H](CSc1ccccc1)Cc1ccccc1,-21.7
12,CC(OC(=O)c1ccncc1)C(=O)Nc1ccc([N+](=O)[O-])cc1Cl (centres unmarked),-32.2
13,O=C(NC(=S)Nc1ccc(Cl)cc1Cl)C1CC1,3.44
14,CCCCCCCN1CCC(=O)N([C@H](CO)c2ccccc2)CC1,-63.7
15,Cc1cc(C(=O)OCC(=O)NCc2ccco2)c(C)n1-c1ccccc1,6.07
16,COCCN(C(=S)Nc1cccc(C)c1)C(C)c1cccnc1 (centres unmarked),-4.61
17,Cc1cc(C)cc(S(=O)(=O)c2cn(C)c3cc(N4CCN(C)CC4)c(F)cc3c2=O)c1,-11.5
18,Cc1noc(C)c1COc1ccc(C(=O)OCC(=O)c2ccc3c(c2)OCCO3)cc1,5.49
19,CCC(C)NC(=O)CC(NS(=O)(=O)c1ccc(Cl)cc1)c1ccco1 (centres unmarked),5.63
20,COc1ccc(NC(=O)CCCCCn2nnc3ccccc3c2=O)cc1,16.4
21,O=C(NCC1CCCCC1)c1ccc(Cl)nc1,16.8
22,COc1cccc(-c2ccc(SCC(=O)c3ccccc3)nn2)c1,-22.1
23,COc1ccc(C(=O)Nc2ccccc2C(=O)NC(C(=O)NCc2ccco2)C(C)C)cc1 (centres unmarked),1.69

row,Compound,"hERG current change (%, negative = inhibition) at 10uM [%]"
1,CCc1cc2c3c(c1)C(C)CC(C)(C)N3C(=O)/C2=C1\SC(=O)NC1=O (centres unmarked),2.96
2,CC1(C)CC(=O)C2=C(C1)Nc1cc(C(=O)c3ccccc3)ccc1NC2c1ccccn1 (centres unmarked),-11.6
3,Cc1ccc(N(CCC#N)C(=O)COC(=O)C2CCN(S(=O)(=O)c3ccc4c(c3)OCCO4)CC2)cc1,7.24
4,CCC(=O)c1ccc(OCC(O)CN2CCN(c3cccc(C(F)(F)F)c3)CC2)cc1 (centres unmarked),-55.2
5,C[C@H](NC(=O)c1ccco1)C(=O)Nc1ccc(S(=O)(=O)N2CCCC2)cc1,1.53
6,COC(=O)c1ccc(N2CCN(S(=O)(=O)c3ccc(Br)cc3)CC2)c([N+](=O)[O-])c1,10.6
7,CC(CNC(=O)c1cccc(Br)c1)n1cncn1 (centres unmarked),15.2
8,COc1ccc(S(=O)(=O)N2CCC(C(=O)NC3CCCCC3)CC2)cc1C,8.8
9,COC(=O)c1sc(-c2ccccc2)cc1NC(=O)c1ccc(OC)cc1,15.2
10,COc1ccc(Cc2nnc(NC(=O)c3ccc(OC)c(OC)c3)s2)cc1,14.7
11,CCc1noc(C)c1C(=O)Oc1ccc(N(C)S(=O)(=O)c2ccccc2)cc1,1.2
12,CCN(CC)CCCNc1nc2ccccc2[nH]1,-2.62
13,Cc1ccc(-n2ncc3c(Nc4c(C)n(C)n(-c5ccccc5)c4=O)ncnc32)c(C)c1,11.7
14,CC(C)(C)c1ccc(Cn2ccc(-c3ccc4c(c3)OCO4)n2)cc1,15.4
15,Cc1ccc(S(=O)(=O)N(CC(O)CN2CCOCC2)c2cccc([N+](=O)[O-])c2)cc1 (centres unmarked),-34.5
16,CCOC(=O)CSc1nnc(CNc2ccc(F)cc2)o1,-6.08
17,C=CCNc1scc(-c2ccccc2)[n+]1CC=C.[Br-],-21.4
18,N#Cc1cc(-c2ccccc2)cnc1Sc1ccc(Cl)cc1,-7.54
19,COc1cccc(-c2noc(-c3cccs3)n2)c1,-3.5
20,CCOC(=O)c1ccc(NC(=O)c2cc3ccccc3o2)cc1,-4.42
21,C/C(=N\NC(=O)c1cccc(Br)c1)c1ccccn1,7.05
22,COc1ccccc1C(CCNS(=O)(=O)c1ccc(C)cc1)c1ccco1 (centres unmarked),-0.00752
23,Cc1ccnc(Cc2ccccc2)n1,17.4

row,Compound,"hERG current change (%, negative = inhibition) at 10uM [%]"
1,O=C1CC(c2c[nH]c3ccccc23)C(=O)N1 (centres unmarked),5.22
2,COc1ccccc1-n1nnnc1SCC(=O)Nc1ccc(C)c(N)c1,19.9
3,COc1ccc(NC(=O)C2CC(=O)OC23CCCCC3)cc1 (centres unmarked),-10.7
4,COc1ccc(-c2cc(C(=O)N3CCN(c4ccccc4OC)CC3)no2)cc1,10.5
5,COc1cccc(/C=C/C(=O)c2ccc(NC3=NCCCS3)cc2)c1,-28.8
6,C/C(=N/NC(=O)CNC(=O)COc1cccc(C)c1)c1ccc(Cl)cc1,7.95
7,Nc1nc(N)c(N=Nc2ccc(Cl)cc2)c(=O)[nH]1,6.7
8,O=C(NCCN1CCN(c2ccccc2)CC1)Nc1cccc(Cl)c1,-55.7
9,CCn1nnc(NC(=O)c2ccc(Br)o2)n1,13.7
10,Cc1cc(NS(=O)(=O)c2c(C)c(C)cc(C)c2C)no1,1.18
11,NS(=O)(=O)c1ccc(CCNC(=O)C2CCC(CNS(=O)(=O)c3ccc(Br)s3)CC2)cc1 (centres unmarked),32.2
12,CCC1Oc2ccc(C)cc2N(CC(=O)NCCN2CCOCC2)C1=O (centres unmarked),2.28
13,Cc1nc2c(n1C1CCCCC1)C(=O)c1ccccc1C2=O,14.7
14,CC1CCN(c2ccc(NC(=O)c3cccnc3)cc2)CC1,-3.1
15,COc1ccc(NC(=O)Nc2ccc3c(c2)N(C)C(=O)CS3)cc1Cl,0.0848
16,Cc1ccc(C(c2nnnn2C2CCCCC2)N2CCc3ccccc32)cc1 (centres unmarked),1.37
17,Cn1nc(C(=O)Nc2nc(-c3ccc(F)cc3)cs2)ccc1=O,5.72
18,O=C(Cn1nc(Cc2cccnc2)c2ccccc2c1=O)NCc1ccc2c(c1)OCO2,-25.8
19,Cc1c(C(=O)N2CCCCC2)c(S(=O)(=O)N2CCN(c3ccccc3F)CC2)c(C)n1C,7.03
20,COc1ccc(C(=O)NCc2nnc(SCC(=O)c3ccccc3)n2C)cc1,-15.9
